The supplement of paper PMC11417369
± gives the standard deviation of the averaged measurements. The list shows a part of the results.

What follows are sequences tested on PfAP2-G AP2 domain (GST-tagged) (assay: gcPBM binding intensity (ln(normalized median fluorescence intensity)); higher = stronger DNA binding).
Procedure, shortened: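 Probes on an Agilent 4 × 180k array were primer-extended, double-stranded and 36 bp long, taken from intergenic genomic regions, with negative controls added. GST-tagged P. falciparum DNA-binding domains from E. coli, about 25 μg on average, were applied to the array for 1 h in 1× PBS containing 1% milk, 0.2 mg/ml BSA, 0.5% salmon testes DNA and 0.03% Triton X-100. Binding intensity, obtained after Alexa488 anti-GST antibody detection and a 488 nm scan, is the highest Masliner-normalised natural-log median intensity across replicate spots of either probe orientation.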
In the case of “AAAAAAAAAAAAAAATACAAGCACATTTATATAAGC [GTGCAC_negctrl_site695]”, the “gcPBM binding intensity (ln)” value is reported as 10.04 ± 0.057.
“TGCTTATATTTTTATACACACAAGATACTTTTTGTT [CACACA_site1535]” was tested, and the “gcPBM binding intensity (ln)” value was 10.3 ± 0.16.
In the case of “ATCTAAATAAAGTTAACACACACATAATATATATAT [CACACA_site8055]”, the “gcPBM binding intensity (ln)” value is reported as 10.1 ± 0.28.
In the case of “AAAAAAAAAAGACACACACACACAAATACATACACA [CACACA_site6472]”, the “gcPBM binding intensity (ln)” value is reported as 10.3 ± 0.3.
In the case of “TGAATAAAGATATATACACACATATAGGTATATATC [CACACA_site6870]”, the “gcPBM binding intensity (ln)” value is reported as 9.795 ± 0.021.
For “TTTTTTTCTTTTGGGAGTACCAACATTTTCACATAT [XGTACX_site1371]”, the “gcPBM binding intensity (ln)” value was 11.3 ± 0.75.
“CTATGCCCCATATAAACACACAAATAAAAAGAATAT [CACACA_site2681]” was tested, and the “gcPBM binding intensity (ln)” value was 10.1 ± 0.17.
In the case of “TTATGTAAATGCTTATGTACTTATTACAATATTTTT [XGTACX_site4057]”, the “gcPBM binding intensity (ln)” value is reported as 11.1 ± 0.69.
“AAAACAAATAAGTAAACACACATATAAAATCTATAT [CACACA_site7262]” was tested, and the “gcPBM binding intensity (ln)” value was 9.835 ± 0.049.
With “CCTATTTATTTATACACACACATATATAAATAAATA [CACACA_site7417]” the “gcPBM binding intensity (ln)” value was 10.3 ± 0.38.
In the case of “TAAGAATTGAAAAAATGTACACAATATAAAATTGAA [XGTACX_site698]”, the “gcPBM binding intensity (ln)” value is reported as 11.3 ± 0.77.
For “AAAAAGAATAAATAAATAAATAAATATATATATATA [GTGCAC_negctrl_site584]”, the “gcPBM binding intensity (ln)” value was 9.98 ± 0.55.
In the case of “ATATTATATAAATACACACACACATGCATGCACATA [CACACA_site4236]”, the “gcPBM binding intensity (ln)” value is reported as 10.2 ± 0.11.
“TTTATTACTATGTAAACACACATGCAATATATGTTA [CACACA_site1114]” was tested, and the “gcPBM binding intensity (ln)” value was 9.92 ± 0.014.
In the case of “AAAAAGAAAAAAAAATGTACATAAAGTCTAATGATA [XGTACX_site4781]”, the “gcPBM binding intensity (ln)” value is reported as 11.1 ± 0.44.
For “TATATATATTATATATGTACATATATTTTTTTTTTT [XGTACX_site127]”, the “gcPBM binding intensity (ln)” value was 11.2 ± 0.81.
With “ATTTATATTACAAAAAGTACACACATAAATAAATAC [XGTACX_site1827]” the “gcPBM binding intensity (ln)” value was 11.6 ± 0.92.
“CAATCATAGAAAAACAGTACGTGTAGCAAACATCCT [XGTACX_site4889]” was tested, and the “gcPBM binding intensity (ln)” value was 10.8 ± 0.45.
For “TATAATATATTATAACGTACAAATATATATATAAAA [XGTACX_site6581]”, the “gcPBM binding intensity (ln)” value was 11 ± 0.65.
“AAAAAAAAAAAATATATATATATATATATATATATA [CACACA_negctrl_site1606]” was tested, and the “gcPBM binding intensity (ln)” value was 9.81 ± 0.73.
For “TATTAATCATATAAATGTACGTATATATATTTTTCT [XGTACX_site1421]”, the “gcPBM binding intensity (ln)” value was 11.4 ± 0.86.
With “ATATATATATATATAACACACGTGTATATATATGTA [CACACA_site3644]” the “gcPBM binding intensity (ln)” value was 10.2 ± 0.33.
In the case of “TATATATATATATGGGGTACAAATGGTCAGTATTAT [XGTACX_site1223]”, the “gcPBM binding intensity (ln)” value is reported as 11.7 ± 0.97.
With “ATGTTATTAAAAAAGGGTACACATCTTTTATGTTAA [XGTACX_site812]” the “gcPBM binding intensity (ln)” value was 11.4 ± 0.88.
“AATATGTAATAGTGTACACATATATCTGTATTTATG [CACACA_site4252]” was tested, and the “gcPBM binding intensity (ln)” value was 11.6 ± 0.91.
With “TTTAAATATAATTGGAGTACTTATAATATATATATA [XGTACX_site7247]” the “gcPBM binding intensity (ln)” value was 11.5 ± 0.95.
In the case of ATTACACATATAGTAGTGCAATAACTCCAAAAAAAA, the “gcPBM binding intensity (ln)” value is reported as 10.3 ± 0.3.
“AAAATCTAGGTATTTATACACACTAAAATAATATAC [CACACA_site623]” was tested, and the “gcPBM binding intensity (ln)” value was 10.1 ± 0.13.
“CAAATACAGAAACACACACACATATACATATATATA [CACACA_site3498]” was tested, and the “gcPBM binding intensity (ln)” value was 9.87 ± 0.12.
“AAAAAAAAATTATATACACACATATAAATATATATA [CACACA_site1197]” was tested, and the “gcPBM binding intensity (ln)” value was 9.57 ± 0.099.
With “CTATATAATATGAGCACACATAAGATTTGGTGTTAT [CACACA_site744]” the “gcPBM binding intensity (ln)” value was 10.01 ± 0.028.
With “GAAAATATAAAAAAAAGTACATTTTCTCTAAATATA [XGTACX_site2441]” the “gcPBM binding intensity (ln)” value was 11.1 ± 0.75.
With “AAAAAGGGTATTATTACACACACGTAAATATTAAGA [CACACA_site4233]” the “gcPBM binding intensity (ln)” value was 10.13 ± 0.071.
In the case of “AATTTTTTTTTATTGTGTACTTATTTTTTTATATTT [XGTACX_site917]”, the “gcPBM binding intensity (ln)” value is reported as 11.7 ± 0.88.
“ATGTTATATATGTATTGTACGTATTTTGTATATTAT [XGTACX_site6607]” was tested, and the “gcPBM binding intensity (ln)” value was 11.6 ± 1.1.
In the case of AGTGTTTTTTATAAAGTGCAATATAAAAACAAAATG, the “gcPBM binding intensity (ln)” value is reported as 10.4 ± 0.35.
In the case of “TTTTATTTCATTTGTTGTACTTTCAAAATATTATTA [XGTACX_site2192]”, the “gcPBM binding intensity (ln)” value is reported as 11.3 ± 0.79.
“AAGAATAAAGAATGGTGTACATGCATATAAAATATT [XGTACX_site5707]” was tested, and the “gcPBM binding intensity (ln)” value was 11.4 ± 0.74.
With “ACATACATATGTAAATGTACAAAATATCCATAGATT [XGTACX_site2782]” the “gcPBM binding intensity (ln)” value was 10.8 ± 0.45.
With “ATATACTCATTAATAACACACAATATGATAACAAAT [CACACA_site5913]” the “gcPBM binding intensity (ln)” value was 10.07 ± 0.071.
With “CAACATATGCATATGTGTACATATTTTATTTTCAAC [XGTACX_site2237]” the “gcPBM binding intensity (ln)” value was 11.7 ± 1.1.
With “AATATATTTCATTTTTGTACACACAACGTTGGAGGG [XGTACX_site6461]” the “gcPBM binding intensity (ln)” value was 11.3 ± 0.69.
“TTTTTTTTTTTTTTTTTTTGTCTTATATATTACGGA [CACACA_negctrl_site322]” was tested, and the “gcPBM binding intensity (ln)” value was 9.64 ± 0.67.
“GCTACACAATTTTTTAGTACACACATATAAATATAT [XGTACX_site3131]” was tested, and the “gcPBM binding intensity (ln)” value was 11.4 ± 0.95.
For “ATAATGTAGAACTAGAGTACATAAAAAAATAAACAT [XGTACX_site5205]”, the “gcPBM binding intensity (ln)” value was 11.5 ± 0.96.
For “TTTTTCATATTATACTTTTATATACATATATAAAAA [XGTACX_negctrl_site281]”, the “gcPBM binding intensity (ln)” value was 10.3 ± 0.45.
For “TAAAGATTGTTCAGTGCATGTTGGCCTGTAAATGGA [TGCATGCA_site315]”, the “gcPBM binding intensity (ln)” value was 10.2 ± 0.18.
With “TATATATTATCAAGTGGACACACGAAAAAAAGGAAA [CACACA_site3741]” the “gcPBM binding intensity (ln)” value was 11 ± 0.74.
“GTAATTTTGAGATGATGTACATATTTTTTCCTTGTC [XGTACX_site4103]” was tested, and the “gcPBM binding intensity (ln)” value was 11.3 ± 0.86.
“TAAGATATATTTTTTTGTACACATAATAAAATAATA [XGTACX_site8938]” was tested, and the “gcPBM binding intensity (ln)” value was 11.2 ± 0.68.
With “GATAAATCATATATAACACACATATGAATATTACAA [CACACA_site1321]” the “gcPBM binding intensity (ln)” value was 9.82 ± 0.071.
With “AAAAGAAACTTATTTACGCACACTTTATTGCATGTT [CACACA_site3887]” the “gcPBM binding intensity (ln)” value was 10.24 ± 0.042.
“TATACATATATTATATGTACATATATATATAATATA [XGTACX_site2942]” was tested, and the “gcPBM binding intensity (ln)” value was 11.2 ± 0.76.
In the case of “TTAAAGCTGACATATACACACATACATAAATTCATA [CACACA_site5377]”, the “gcPBM binding intensity (ln)” value is reported as 10.1 ± 0.12.
“GGACAAGTTTTTTACATAAATAAAAAAAATAAAAAA [XGTACX_negctrl_site125]” was tested, and the “gcPBM binding intensity (ln)” value was 10.22 ± 0.057.
For “ATATATATATAATAAACACACAAATAGATATAACAT [CACACA_site3715]”, the “gcPBM binding intensity (ln)” value was 10.1 ± 0.11.
“CCCCCCCACAGACACACACACATACATACCACATAT [CACACA_site2306]” was tested, and the “gcPBM binding intensity (ln)” value was 11.8 ± 0.76.
